Screen size: about 410,000 compounds; about 6,400 (1.6%) were called active. The shares of active, inactive and inconclusive entries below differ from those in the screen. Calls come from the whole dose curve; as a rule, active = well fitted inhibition curve with a large enough effect; inconclusive = small, poorly fitted or top-dose-only effect; inactive = no such curve, though single readings can be large or run the other way. Potencies of inconclusive entries are doubtful fits and often do not repeat.
target: Glucagon-like peptide 1 receptor (Homo sapiens) (UniProt P43220); experiment: qHTS of GLP-1 Receptor Inverse Agonists (Inhibition Mode); conditions: HEK293 GLP-1R CRE-luciferase, luminescence, 24 h, GLP-1R form is constitutively active; series mostly up to 38.3 µM; note: nearly all actives have a fitted effect of over 55% in size
How it was run: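 Constitutively active GLP-1R drives a cAMP-responsive luciferase in stably transfected HEK293 cells; test compounds are added after overnight (12 h) attachment and left 24 hr, and signal loss in luminescence marks inhibition.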
Potency is the fitted concentration of half-maximal effect; tags give direction and shape of the fitted curve.

Chain of UniProt P43220 (P43220 whole entry, looked up): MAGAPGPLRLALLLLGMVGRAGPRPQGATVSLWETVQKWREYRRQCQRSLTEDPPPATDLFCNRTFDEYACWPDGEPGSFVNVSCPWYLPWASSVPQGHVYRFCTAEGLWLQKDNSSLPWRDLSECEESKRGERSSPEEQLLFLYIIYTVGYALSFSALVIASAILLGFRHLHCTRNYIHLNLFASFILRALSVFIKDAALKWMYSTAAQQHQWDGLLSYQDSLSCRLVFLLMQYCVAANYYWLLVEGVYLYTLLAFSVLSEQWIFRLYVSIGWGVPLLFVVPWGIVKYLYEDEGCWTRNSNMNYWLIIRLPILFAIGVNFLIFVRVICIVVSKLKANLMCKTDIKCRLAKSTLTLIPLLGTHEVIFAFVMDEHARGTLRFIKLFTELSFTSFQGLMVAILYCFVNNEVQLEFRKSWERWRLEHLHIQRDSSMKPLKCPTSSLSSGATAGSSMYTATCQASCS

Potency, inconclusive:
Cc1ccc(N2CCN(C(=O)NCc3noc4ccc(C)cc34)CC2)c(C)c1 28.2 µM [inhibitor, single point]
Cc1cc(SCc2ccc(Cl)cc2Cl)nc(=O)[nH]1 5.62 µM [inhibitor, partial curve, poor fit]
Cc1nc2c(O)c3c(c(O)c2nc1C)C1C=CC3CC1 3.55 µM [inhibitor, full curve, poor fit]
Cc1cccc(NC(=O)c2ccc(CNS(=O)(=O)c3ccc4c(c3)C(C)(C)C(=O)N4C)cc2)c1 10 µM [inhibitor, partial curve, poor fit]
O=C(NC(=S)N1CCCC1)c1ccc(Cl)cc1Cl 10 µM [inhibitor, partial curve, poor fit]
Cc1nn2c(Nc3ccccc3)c3c(nc2c1-c1ccccc1)CCC3 2.51 µM [inhibitor, partial curve, poor fit]
COc1cccc(-c2sc3ccc(OC)cc3c2-c2cnc(N3CCOCC3)nc2)c1 28.2 µM [inhibitor, single point]
CN(CCc1ccccc1)C(c1ccnc2ccccc12)c1nnnn1-c1ccc2c(c1)OCCO2 (configuration not stated) 28.2 µM [inhibitor, single point]
CCOC(=O)CNC(=S)N(Cc1ccccc1)Cc1ccccc1F 10 µM [inhibitor, partial curve, poor fit]
CCn1c(C)c(C(C)=O)c(N2CCN(C(c3ccccc3)c3ccccc3)CC2)nc1=S 14.1 µM [inhibitor, partial curve, poor fit]
O=C(COc1ccc(Br)cc1Cl)NC(=S)N1CCc2ccccc21 15.8 µM [inhibitor, single point]
Cc1ccc(C(=O)ONc2ccc(N=NC(=O)c3ccccc3O)cc2)cc1 1.26 µM [inhibitor, partial curve, poor fit]
Cc1ccc(C)c(NC(=O)Cc2nc(CNCC(C)C)cs2)c1 8.91 µM [inhibitor, partial curve]

Potency, inactive:
Cc1ccc(S(=O)(=O)N[C@H](C(=O)Oc2ccc3c(C(F)(F)F)cc(=O)oc3c2)c2ccccc2)cc1
CCOc1ncccc1C(=O)Nc1ccc(OC)c(S(=O)(=O)N2CCCCC2)c1
CCCCCCn1nc(C(=O)OCC(=O)c2c(N)n(C)c(=O)n(C)c2=O)c2ccccc2c1=O
COc1cc(OC)c(C(=O)Nc2cccc(C(C)=O)c2)cc1OC

Source: PubChem BioAssay AID624417 (National Center for Advancing Translational Sciences (NCATS), 2012)
